Results from PubChem BioAssay AID1347434 (National Center for Advancing Translational Sciences (NCATS), 2020).
Among all 1,200 compounds or so, about 30 (2%) were called active. Another 23% or so got no clear call; they are omitted. The call rests on the fitted dose curve; in most records, active means well fitted inhibition curve with a large enough effect; inconclusive means small, poorly fitted or top-dose-only effect; inactive means flat fitted curve, though single readings scatter. The list shows a part of the results.

The compounds below were run against Single-stranded DNA cytosine deaminase (Homo sapiens) (UniProt Q9GZX7) (assay: Confirmatory qHTS assay for inhibitors of Activation Induced Cytidine Deaminase (AID): AID signals). Conditions: recombinant AID, FRET deamination/UDG coupled fluorescence, 4 h; series mostly up to 115 µM; activity, negative = inhibition: at the top concentration.
Chain of UniProt Q9GZX7 (Q9GZX7 whole entry, looked up): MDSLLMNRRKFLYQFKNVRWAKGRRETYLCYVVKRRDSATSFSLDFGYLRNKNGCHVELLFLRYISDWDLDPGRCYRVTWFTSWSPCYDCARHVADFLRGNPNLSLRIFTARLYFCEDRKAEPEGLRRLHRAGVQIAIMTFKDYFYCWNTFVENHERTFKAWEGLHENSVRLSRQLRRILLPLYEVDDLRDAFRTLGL
How it was run: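 Read 1 (AID) was measured at 540 ex/590 em after a 30 min NaOH step. The reaction was AID (1 uM, 4/3x stock) with UDG, compound at final 7.32 nM - 114 uM for 10 min, then DJC20/DJC23 substrate for 4 hr at room temperature. A UDG read at 560/665 serves as counterscreen.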
On the % scale 0 is the no-effect control and ±100 the full control effect; potency means the concentration at half of the fitted maximal effect.

Compound | activity, negative = inhibition | Potency
COc1ccc(Cn2cc(C(=O)c3ccc(OC)cc3)c(=O)c3cc4c(cc32)OCCO4)cc1 | inactive: -13.8% | –
Cc1cc(NC(=O)c2oc3c(c2C)-c2[nH]ncc2CC3)ccc1Br | inactive: 53.2% | –
O=C(c1ccc2c(c1)N(Cc1ccccc1Cl)C(=O)c1ccccc1S2)N1CCCC1 | inactive: -3.26% | –
COc1ccc(N2C(=O)CSC23C(=O)N(CC(=O)NCc2ccccc2)c2ccccc23)cc1 (stereo not given) | inactive: -0.726% | –
CCc1ccc(S(=O)(=O)c2cnc3ccc(OC)cc3c2N2CCCC(C)C2)cc1 (stereo not given) | inactive: -7.45% | –
Cc1ccc(Nc2c(-c3ccsc3)nc3cccc(C)n23)cc1 | inactive: 2.76% | –
CCCCCSc1nnc2c(n1)OC(CC)Nc1ccc(Br)cc1-2 (stereo not given) | inactive: -3.45% | –
CCC(C(=O)Nc1cc(OC)ccc1OC)n1c(=O)c(C(F)(F)F)nc2ccccc21 (stereo not given) | inactive: -11.8% | –
COc1ccc(S(=O)(=O)N(CC(=O)NC(C)c2ccccc2)c2ccc(C)cc2)cc1OC (stereo not given) | inactive: 1.71% | –
Cc1ccc2nc(-c3ccccn3)c(Nc3ccccc3C)n2c1 | inactive: -19.5% | –
COc1ccc(-c2nc(CSCC(=O)NCc3ccccc3Cl)c(C)o2)cc1OC | inactive: -1.37% | –
CCCCCN1C(C(=O)c2ccccc2)=C(OC(=O)CC)c2ccccc2S1(=O)=O | inactive: -12.7% | –
Cc1cccc(N2CCN(C(=O)C(C)n3nc(C)n4c(cc5occc54)c3=O)CC2)c1C (stereo not given) | inactive: -6.52% | –
CCn1cc(C(=O)NCCc2ccccc2)c(=O)c2cc(S(=O)(=O)N3CCCCCC3)ccc21 | inactive: -14.2% | –
N#CC1=C2SCN(C3CCCCC3)CN2C(=O)CC1c1ccc(Br)cc1 (stereo not given) | inactive: -18.3% | –
CCc1nc(Nc2ccc(F)c(Cl)c2)c2c3c(sc2n1)CCCC3 | inactive: 2.84% | –
Cc1nc2cc(C(=O)NCCC3=CCCCC3)ccc2n1-c1ccc(Br)cc1 | inactive: -10.9% | –
O=C(COc1ccccc1Cl)N(Cc1ccco1)Cc1ccco1 | inactive: -12.5% | –
Cc1ccc2ncc(S(=O)(=O)c3ccccc3)c(N3CCCCC3C)c2c1 (stereo not given) | inactive: -27.6% | –
Cc1nn(-c2ccccc2)c(-n2cccc2)c1C(=O)NCCc1ccc(Cl)cc1 | inactive: -7.18% | –
Cc1cccc(CCNc2ncnc3onc(-c4ccc(Cl)cc4)c23)c1 | inactive: 2.28% | –
COc1ccc(CCNC(=O)CSc2cn(CCNC(=O)c3cccc(C(F)(F)F)c3)c3ccccc23)cc1OC | inactive: -5.23% | –
Cc1ccc(C(=O)c2cn(Cc3cccc(C)c3)c3nc(C)ccc3c2=O)cc1 | inactive: -14.7% | –
CCN(C(=O)Cn1c(SCC(=O)Nc2ccc(OC)cc2)nc2ccccc21)c1cccc(C)c1 | inactive: -22% | –

Compound | activity, negative = inhibition | Potency
Cc1ccc(COc2ccc3oc(-c4ccccc4)c(C(=O)O)c3c2)cc1 | inactive: -23.5% | –
Cc1ccc(CNC(=O)c2sc3nc4n(c(=O)c3c2C)CCCC4)cc1 | inactive: -0.809% | –
CCOC(=O)c1ccc(-c2ccc(/C=C(\C#N)c3nc4ccc(C)cc4[nH]3)o2)cc1 | inactive: -12.6% | –
N#CC1=C2SCN(C3CCCCC3)CN2C(=O)CC1c1c(F)cccc1Cl (stereo not given) | inactive: 1.71% | –
CCCN1CCN(c2cc3c(cc2F)c(=O)c(S(=O)(=O)c2ccc(CC)cc2)cn3CC)CC1 | inactive: -6.7% | –
Cc1ccc(-c2ccc(=O)n(CC(=O)Nc3ccc(C)cc3Cl)n2)cc1 | inactive: -24.2% | –
COc1ccc(CC(=O)Nc2sc3c(c2C(=O)Nc2cccc(Cl)c2)CCCCC3)cc1 | inactive: 2.52% | –
Fc1ccc(CNc2ncnc3onc(-c4ccc(F)cc4)c23)cc1 | inactive: -9.5% | –
CCCN(CCC)CC(O)Cn1cc(/C=C/C(=O)c2ccc(C)cc2)c2ccccc21 (stereo not given) | inactive: -15.2% | –
COc1ccccc1Cn1cc(C(=O)c2ccc(C)cc2)c(=O)c2cc(C)ccc21 | inactive: -14.3% | –
CCC(Oc1ccccc1F)C(=O)N1CCC(c2nc3ccccc3s2)CC1 (stereo not given) | inactive: -7.66% | –
COc1ccc(N2CCN(Cc3cccn3-c3nnc(N4CCN(C5CCCCC5)CC4)s3)CC2)cc1 | inactive: -4.16% | –
CCCCN(CC)CCCNC(=O)c1ccc2c(c1)N(Cc1ccc(C)cc1)C(=O)c1ccccc1S2 | inactive: -23.5% | –
Cc1ccc(CNC(=O)C2CCCN(c3nc4ccccc4n4cccc34)C2)cc1 (stereo not given) | inactive: -2.08% | –
COCCNC(=O)c1ccc2c(c1)N(Cc1ccc(C(F)(F)F)cc1)C(=O)c1ccccc1S2 | inactive: -3.98% | –
N#C/C(=C\c1ccc(-c2ccc(Cl)c(C(=O)O)c2)o1)c1nc2ccccc2[nH]1 | inactive: -24.3% | –
CCn1cc(C(=O)OCC(=O)Nc2cccc(C(C)=O)c2)c(=O)c2ccc(C)nc21 | inactive: -6.41% | –
CCOc1ccc(CN2CCc3nc(Nc4ccc(OC)cc4OC)ncc3C2)cc1 | inactive: -2.62% | –
COc1ccc(CNc2oc(-c3ccc(COc4ccccc4C)o3)nc2C#N)cc1 | inactive: -0.216% | –
Cc1ccc(Cl)cc1N1CCN(Cc2nnc(-c3ccc4c(c3)OCO4)o2)CC1 | inactive: -7.22% | –
CC(C)(C)OC(=O)N1CCC(c2c(C(=O)N3CCC(c4ccccc4)C3)cnn2-c2cccc(Cl)c2)CC1 (stereo not given) | inactive: -6.06% | –
Cc1ccc(-c2nc3sc(CCNC(=O)c4ccc(Br)o4)c(C)n3n2)cc1 | inactive: -14.3% | –
COc1cccc(CNC(=O)c2cc3c(s2)-c2ccccc2OC3)c1 | inactive: -10.7% | –
Cc1nc2c(C(=O)NCc3ccccc3)c[nH]n2c(=O)c1Cc1ccccc1Cl | inactive: -12.7% | –

Compound | activity, negative = inhibition | Potency
Cc1cccc(CCNC(=O)c2sc3nc4n(c(=O)c3c2C)CCCC4)c1 | inactive: -13.8% | –
Clc1ccc(-c2noc3ncnc(NCCc4ccccc4)c23)cc1 | inactive: -12.8% | –
CCC(Sc1nc2ccccc2c(=O)n1CCc1ccc(OC)c(OC)c1)C(=O)N(CC)CC (stereo not given) | inactive: -6.51% | –
COc1c(C)cccc1C(=O)Nc1cccc2ccc(C)nc12 | inactive: -6.4% | –
COc1ccc(S(=O)(=O)c2cnc3ccc(Cl)cc3c2N2CCCCC2C)cc1 (stereo not given) | inactive: -7.01% | –
CC(=O)c1cccc(NC(=O)c2oc3c(c2C)-c2nn(Cc4ccc(Cl)cc4)cc2CC3)c1 | inactive: 25.6% | –
COc1cc(Nc2nc(SCC(=O)c3ccc(Br)cc3)nc3ccccc23)cc(OC)c1 | inactive: -11.3% | –
O=C1C(SCCO)=C(SCCO)C(=O)c2ccccc21 | – | active: 14.1 µM
CCCc1cc(=O)n2[nH]c(NC(=O)c3ccc(C(C)(C)C)cc3)nc2n1 | inactive: -15.5% | –
COc1ccc(C(=O)Nc2nc3nc(C)c(Cc4ccccc4)c(=O)n3[nH]2)cc1OC | inactive: -10.3% | –
COC(=O)c1ccc(CSc2nnc3ccc4ccccc4n23)cc1 | inactive: -11% | –
Cc1ccc2cccc(NC(=O)c3ccc(OC(C)C)cc3)c2n1 | inactive: -17.6% | –
CSc1nc(Nc2ccc(F)cc2)cc(-c2ccccc2)n1 | inactive: -5.19% | –
Cc1ccc(CNC(=O)Nc2cc(C(=O)NCc3ccc(C(C)C)cc3)ccc2N2CCCC2)cc1 | inactive: 5.42% | –
CCC(=O)Oc1c(Sc2ccc(Cl)cc2)c(C)nn1-c1ccccc1 | inactive: 5.67% | –
CCc1ccc(CN2CCc3nc(Nc4ccccc4)ncc3C2)cc1 | inactive: -9.78% | –
CCc1ccccc1Nc1nn2c(=O)c3ccc(C(=O)NC(C)c4ccccc4)cc3nc2s1 (stereo not given) | inactive: -7.25% | –
CCCNC(=O)c1cnn2c(C)c(Cc3c(C)cc(C)cc3C)c(C)nc12 | inactive: -18.3% | –
CC(=O)NCCNc1nc2c(S(=O)(=O)c3ccc(C)c(C)c3)nnn2c2ccc(Cl)cc12 | inactive: -21.6% | –
Cc1ccc(C(C)C)c(OCC(=O)N2CCC(c3nc4ccccc4o3)CC2)c1 | inactive: -23.9% | –
Cc1nn2c(=O)cc(COC(=O)c3ccc(NC(=O)C4CCCCC4)cc3)nc2s1 | inactive: -2.33% | –
Cc1sc2ncn(CC(=O)N3CCN(c4ccc(F)cc4)CC3)c(=O)c2c1S(=O)(=O)N1CCC(C)CC1 | inactive: -15.3% | –
CCOc1ccccc1NC(=O)CN1C(=O)CC(c2ccc(OC)c(OC)c2)Sc2ccccc21 (stereo not given) | inactive: -16.7% | –
CCN1C(=O)c2ccccc2S(=O)c2ccc(C(=O)N3CCN(c4cccc(C)c4)C(C)C3)cc21 (stereo not given) | inactive: -22.1% | –

Compound | activity, negative = inhibition | Potency
CN1CCN(c2nc3c(S(=O)(=O)c4ccc(Cl)cc4)nnn3c3ccsc23)CC1 | inactive: -27.7% | –
Cc1nn2c(C)c(C(=O)NCCc3ccccc3)cnc2c1-c1ccccc1 | inactive: -13.7% | –
CC(C)(C)OC(=O)N1CCC(c2c(C(=O)N3CCN(Cc4ccccc4)CC3)cnn2-c2cccc(Cl)c2)CC1 | inactive: -15.7% | –
CCCCC1CCC(C(=O)N2CC(=O)Nc3ccc(F)cc3C2c2ccc(F)cc2)CC1 (stereo not given) | inactive: -12% | –
CCc1ccc(NC(=O)c2cnn(-c3c(C)cccc3C)c2C2CCN(C(=O)OC(C)(C)C)CC2)cc1 | inactive: -18.2% | –
COc1ccc(NC(=O)CSc2nc3nc(C)c(Cc4ccc(C)cc4)c(C)n3n2)cc1OC | inactive: -8.3% | –
CCCN(Cc1cccs1)C(=O)Nc1cc(Cl)ccc1C | inactive: -11% | –
CC(C)Cc1ccc(S(=O)(=O)N2CCC(c3ccncc3)CC2)cc1 | inactive: -12% | –
CCn1cc(S(=O)(=O)c2ccc(Cl)cc2)c(=O)c2cc(F)c(N3CCOCC3)cc21 | inactive: -0.934% | –
CC(C)c1ccc2c(c1)-c1ccccc1S(=O)(=O)N2CC(=O)N1CCCCC1 | inactive: -10.8% | –
Cc1c(Cl)cccc1-n1ncc(C(=O)NCc2cccs2)c1C1CCN(C(=O)OC(C)(C)C)CC1 | inactive: -12.8% | –
Cc1cccc(-c2nc(CSCC(=O)NCCc3ccc(Cl)cc3)c(C)o2)c1 | inactive: -6.88% | –
CN(C(=O)c1ccc2c(c1)N(Cc1ccccc1F)C(=O)c1ccccc1S2)C1CCCCC1 | inactive: -18.7% | –
CCc1ccc(OCC(=O)N(Cc2ccco2)Cc2ccco2)cc1 | inactive: -14.7% | –
Cc1ccc(C)c(CN2CCCN(Cc3cc(C)ccc3C)S2(=O)=O)c1 | inactive: -7.69% | –
COc1ccc(C(=O)N2CCc3cc(OC)c(OC)cc3C2COc2ccccc2OC)cc1 (stereo not given) | inactive: -9.57% | –
Cc1ccc(C)c(N2CCN(C(=O)c3cnn(C(C)(C)C)c3C3CCN(C(=O)OC(C)(C)C)CC3)CC2)c1 | inactive: -13% | –
CCN(CC)C(=O)c1ccc2c(c1)N(Cc1c(F)cccc1Cl)C(=O)c1ccccc1S2 | inactive: -15.8% | –
Cc1cc(C)cc(C(=O)NCCc2sc(-c3ccc(F)cc3)nc2C)c1 | inactive: -3.51% | –
CCCCN(CC)CCCNC(=O)c1cn(CC)c2ccc(S(=O)(=O)N3CCc4ccccc4C3)cc2c1=O | inactive: -21.8% | –
CS(=O)(=O)N(Cc1ccccc1)c1ccc(C(=O)Nc2ccc(Cl)cc2)cc1 | inactive: 10.2% | –
Cc1cccc(Nc2nnc(-c3ccc(C)c(S(=O)(=O)N4CCN(C)CC4)c3)c3ccccc23)c1 | inactive: -25.7% | –
Cc1ccc(CN(Cc2ccco2)C(=O)COc2ccc(C)c(C)c2)cc1 | inactive: -13.6% | –
